Laboratory results: PubChem BioAssay AID2101 (National Center for Advancing Translational Sciences (NCATS), 2009)
The whole screen tested about 330,000 compounds, of which about 300 (0.091%) were called active. The shares of active, inactive and inconclusive entries below differ from those in the screen. Calls come from the whole dose curve; as a rule, active = well fitted inhibition curve with a large enough effect; inconclusive = small, poorly fitted or top-dose-only effect, or effect the other way, or another doubt; inactive = no such curve, though single readings can be large or run the other way. Potencies of inconclusive entries are left out as doubtful fits.
Potency is the fitted concentration of half-maximal effect.
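Throughout, for activity change, negative = inhibition: 0% = full enzyme activity and -100% = no enzyme basal.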

What follows are compounds tested against Lysosomal acid glucosylceramidase (Homo sapiens) (UniProt P04062) (assay: qHTS Assay for Inhibitors and Activators of N370S glucocerebrosidase as a Potential Chaperone Treatment of Gaucher Disease). Conditions: N370S GC spleen homogenate, 4MU-glucoside fluorescence; activity change, negative = inhibition: at 59.4 µM (top of the series) unless noted.
C/C(O)=C\c1nc2ccccc2oc1=O was tested, and the “activity change, negative = inhibition” value was inactive: -10.2%. COc1cc(CCC(=O)Nc2cnc3ccccc3c2)cc(OC)c1OC was tested, and the Potency was inconclusive [activator, single point]. CC1Cc2c(COc3ccccc3)nc3c(c2CO1)CN(CCOc1ccccc1)CC3 (stereo not drawn) was tested, and the activity change, negative = inhibition was inactive: -0.563% [at 12.8 µM]. Cc1cccc(NC(=O)COc2coc(CN3CCN(c4ccccc4)CC3)cc2=O)c1C was tested, and the “activity change, negative = inhibition” value was inactive: -4.72%. With CCc1ccc(NC(=O)CSc2ccc(-c3cccnc3)nn2)cc1 the Potency was inconclusive [activator, single point]. For CCOC(=O)C(CN1CCCC1)c1ccccc1 (stereo not drawn), the “activity change, negative = inhibition” value was inactive: -16.9%. In the case of CC1CCCCC1NC(=O)c1cccc(S(=O)(=O)N2CCN(Cc3ccccc3)CC2)c1 (stereo not drawn), the Potency is reported as inconclusive [inhibitor, partial curve]. For Cc1nc(-c2ccccc2)[nH]c(=O)c1Oc1ccc(Cl)cc1Cl, the Potency was inconclusive [activator, partial curve, poor fit]. With Cc1ccc(C(C)C)c(OCCCN2CCc3ccccc3C2)c1 the Potency was inconclusive [inhibitor, partial curve]. For COc1ccc(S(=O)(=O)Nc2ccccc2C(=O)NCc2cccnc2)cc1, the Potency was inconclusive [inhibitor, partial curve]. For CCc1c(C)c2cc(Cl)c(O)c(CN3CCCC3)c2oc1=O, the Potency was inconclusive [activator, partial curve]. For Cc1ccc(-c2nn(C)c(=O)c3ccccc23)cc1S(=O)(=O)NCCN1CCOCC1, the Potency was inconclusive [inhibitor, partial curve]. For Cc1ccc(/C=C(\NC(=O)c2ccc(C)cc2)c2nc(=S)[nH][nH]2)cc1, the Potency was inconclusive [activator, partial curve]. With CCOC(=O)c1cc2c(=O)n3ccccc3nc2n(CCCOC)c1=NC(=O)c1ccncc1 the Potency was inconclusive [activator, partial curve, poor fit]. For COc1ccc(C(=O)N/C(=C\c2cn(C)c3ccccc23)C(=O)NCCCN2CCOCC2)cc1, the Potency was inconclusive [inhibitor, single point]. In the case of CC(/C=C/c1ccco1)=N/NC(=O)c1ccccc1Cl, the “activity change, negative = inhibition” value is reported as inactive: 4.98%. With c1ccc(COc2ccc(OCCN3CCCC3)cc2)cc1 the Potency was inconclusive [inhibitor, single point]. With Cc1ccc(N(CC(=O)NC2CCCCC2C)S(=O)(=O)c2c(C)noc2C)cc1 (stereo not drawn) the Potency was inconclusive [activator, partial curve, poor fit].
